# In the supplement of paper PMC10338343:
# ± gives the standard deviation. This is a selection; strong and weak results do not stand in their true shares.
# System: MIWI (PIWIL1) piRISC loaded with piRNA #1 (30 nt)
# Assay: pre-steady-state target cleavage rate (min^-1); MIWI and MILI are mouse PIWI proteins and EfPiwi is from a freshwater sponge; tags in brackets are library labels; higher = faster piRNA-guided slicing of the target
# Details: guide: piRNA #1 5'p-UGAGGUAGUAGGUUGUAUAGUAUCCAGAGG; auxiliary factor: 500 nM mouse GTSF1
# Outline: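 For Cleave-'n-Seq, a transcribed, DNA-blocked target RNA library […] met 1 nM active affinity-purified piRISC with one synthetic guide at 33 °C for 0–8 or 0–960 min in HEPES–potassium acetate buffer, with or without 500 nM GTSF1 partner protein. Uncleaved targets were sequenced and normalised to depth and weakly complementary targets, with three trials pooled and k3 capped at 0.0001 min^-1. A burst-and-steady-state fit supplied the pre-steady-state cleavage rate.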
# 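Note: 1 nM active piRISC with 0.1 nM target library at 33 °C single turnover.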
row,Sequence,pre-steady-state target cleavage rate
1,GGAGACCUAUGUAUUCAACCUACUACCUCA,0.0065 ± 0.0016
2,CCUCUUGGAUACUAUACAACCUACUACCUCA,2.3 ± 0.12
3,GGAGACCUAUGAAUUCAUCCUACUACCUCA,< 0.0001
4,GGAGACCUAUGAUAUCUACCUACUACCUCA,< 0.0001
5,GGAGACCUAUGUAUACAACCUCACUACCUCA,0.00715 ± 0.0022
6,GGACUGGAUACUAUACAACCUACUACCCCA,0.494 ± 0.086
7,GGAGACGAUAACUAUACAACCUACUACCUCA,1.17 ± 0.07
8,GGAGAGGAUACUAUACAACCUACUACGCUCA,0.56 ± 0.038
9,GGAGACCUUACUAUACAACCUACUACCGCA,1.5 ± 0.1
10,GGAGACGAUACUAAUGAACCUACUACCUCA,0.282 ± 0.046
11,GGAGACGAUACUAUACAACCUACUCCCUCA,0.806 ± 0.063
12,GGAGUGGAUUCUAUACAACCAACUACCUCA,0.118 ± 0.0085
13,GGAGACCUUACUAUACAACCUACCUACCUCA,1.16 ± 0.095
14,GGAGACCUUACUAGACAACCUACUACCUCA,1.3 ± 0.1
15,GGAGAGGAUACUUUACAACCUACAACCUCA,0.34 ± 0.049
16,GGAGUGGAUACUAUACAACCUACUACGUGA,0.0221 ± 0.0059
17,GGAGAGGAUACUAAACAACCUACUAGCUCA,0.265 ± 0.03
18,CCUGAGGAUACUAUACAACCUACUACCUCA,0.242 ± 0.045
19,GGAGACCUAACUAUACUACGUACUACCUCA,0.00532 ± 0.0021
20,GGAGAGGAUACUAUACAACCUACUACCCA,0.26 ± 0.034

row,Sequence,pre-steady-state target cleavage rate
1,CCUCUGGAUACUAUAAACCUACUACCUCA,1.23 ± 0.11
2,GGAGUGGAUACUAUGACAACCUACUACCUCA,1.48 ± 0.12
3,GGAGACCUUUCUAUACAACCAACUACCUCA,0.0184 ± 0.0041
4,GGAGACCUAACUAUACAACCUACUUGCUCA,0.358 ± 0.07
5,GGACUGGAUACUAUACAACCUACUACCUUA,0.844 ± 0.075
6,GGAGACCUAUCUUACAACCUACUACCUCA,0.293 ± 0.068
7,GGAGACCUAUGAAUUCAACCUAGUACCUCA,< 0.0001
8,GGAGACCUAUCUAUACAACGUACAACCUCA,0.00585 ± 0.0031
9,GGAGACGAUACAUUACAACCUACUACCUCA,0.973 ± 0.11
10,GGACUGGAUACUAUACAACCUACUACCUACA,0.652 ± 0.064
11,GCUCUGGAUACUAUACAACCUACUACCGUCA,1.09 ± 0.071
12,GGAGAGGAUAGUAUAGAACCUACUACCUCA,0.231 ± 0.043
13,GGACUGGAUACUAUACAAUCUACUACCUCA,0.423 ± 0.023
14,CCUCUGGAAACUAUACUACCUACUACCUCA,1.74 ± 0.11
15,GCACUGGAUACAAUACAACCUACUACCUCA,1.8 ± 0.1
16,GGACUGGUUACUAUACAACCUUCUACCUCA,0.625 ± 0.056
17,GGAGACGAUACUAUACAACCUACUACCCA,0.362 ± 0.047
18,GGAGAGGAUACUAUAGAACCUUCUACCUCA,0.104 ± 0.018
19,GGAGACCUAUCUAUACUUCCUACUACCUCA,0.00405 ± 0.0035
20,CCUCUGGAUACUAUACAACGUACUACCACA,0.706 ± 0.059
